Reference: ChEMBL document CHEMBL1201862, “PubChem BioAssay data set” (2004)
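All cell lines were grown in 96-well plates and treated with compound for 48 hours. GI50 = concentration required for 50% inhibition of growth.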 Calls of active or inactive are those of the source. No stated cut-off is given here; in the data, active = GI50 up to about 1.1 µM and inactive = higher.

Each molecule was assayed on NCI-H322M (assay: NCI-60 cell line screen, 48 h).

Structure (SMILES) | GI50
N[C@H]1CCN(c2c(F)cc3c(=O)c(C(=O)O)cn4c3c2Oc2cc3c(ccc5ccccc53)cc2-4)C1 | inactive: 2.06 µM
CCN(CCCl)c1cc(CN(C)C)cc(NC(=O)c2ccc(C(=O)Nc3cc(CN(C)C)cc(N(CC)CCCl)c3)cc2)c1 | active: 0.33 µM
COc1ccc(Nc2c[nH]c(=O)[nH]c2=O)cc1 | inactive: > 100 µM
CN(C)CCNS(=O)(=O)c1ccc(N)cc1 | inactive: > 100 µM
COC(C/C=C\C=C\CC/C=C/CC(C)/C=C/C(=C\C(=O)O)CC(=O)O)/C(C)=C\C=C(/C)C(=O)O (configuration not stated) | inactive: > 100 µM
C=C1CC23CCC4C(C)(C(=O)O)CCCC4(C)C2CCC1C3 (configuration not stated) | inactive: 37.4 µM
CN(C)CCNC(=O)Cn1cc([N+](=O)[O-])c(=O)c2ccccc21 | inactive: > 100 µM
COC(=O)C1Cc2cccc(C)c2C1 (configuration not stated) | inactive: > 100 µM
CCOc1ccc(/C(Cl)=C(\C=O)c2ccc(OC)c(OC)c2)cc1OCC | inactive: 52.6 µM
Cc1cc(C)n(CN(Cn2nc(C)cc2C)C2CCCCC2)n1 | inactive: > 100 µM
Brc1ccc2[nH]cc(-c3nc(-c4c[nH]c5ccccc45)cs3)c2c1 | inactive: 3.02 µM
NC(=O)c1cc2ccc(O)cc2o/c1=N/NC(=O)c1ccccc1 | inactive: 83.6 µM
COC(=O)CCC(=O)C(C#N)c1ccc(Cl)cc1Cl (configuration not stated) | inactive: > 100 µM
COC(=O)C1=C(C(=O)Nc2cccnc2Cl)N(c2ccc(OC)cc2[N+](=O)[O-])C(c2ccc(C)cc2)=CC1c1ccc(OC)cc1OC (configuration not stated) | inactive: 16.1 µM
Cc1cc(C(O)CNC(C)CCn2cnc3c2c(=O)n(C)c(=O)n3C)ccc1O (configuration not stated) | inactive: > 100 µM
COC1/C=C/C(C)C(OC)CC(O)/C=C/C(C)C(C(C)C(OC)C(C)CCC(=O)C(C)C(C/C=C/N(C)C=O)OC)OC(=O)/C=C/C=C(\C)CC(OC)CC2=CC(=O)O[C@@H](C(C)C(OC)C1)[C@H]2O (some centres not stated) | active: 0.404 µM
O=[N+]([O-])c1cc(I)cc(/C=N/NS(=O)(=O)c2ccc(F)cc2)c1O | inactive: 26.9 µM
COc1ccc(Oc2nc3c(N)cc(C(F)(F)F)cc3nc2-c2ccccc2)cc1 | inactive: 25.2 µM
CCc1oc2ccc(OC)c3c2c1C=CC=C3 | inactive: > 100 µM
CCC1OC2C(CC=C(C)C)=C3OC(C)(O)C(C)(CC)C(=O)C3=C3OC(=O)C=C1C32 (configuration not stated) | inactive: 29.7 µM
CN1C(=O)C(=CNc2ccccc2Cl)C(=O)N(C)C1=O | inactive: 31.6 µM
CC(C)c1c(O[Si](C(C)C)(C(C)C)C(C)C)c2c3c(ccc4c3c1OC4(C)C)C(C)CC2 (configuration not stated) | inactive: > 100 µM

Structure (SMILES) | GI50
O=C1CN(c2cccc(Cl)c2)C(=O)CN1NCNN1CC(=O)N(c2cccc(Cl)c2)CC1=O | inactive: > 100 µM
CC(=O)NC1C(OCc2ccccc2)OC(CO)C(O)C1OC(C)C(=O)NC(C(=O)NC(CCC(=O)NCCCCNc1c2ccccc2nc2cccc([N+](=O)[O-])c12)C(N)=O)C(C)C (configuration not stated) | inactive: 4.13 µM
N#Cc1c(-c2ccccc2)c(/C=N/c2cccc(C(F)(F)F)c2)c(=O)n2c1[nH]c1ccccc12 | inactive: 13.8 µM
N#CCC(=O)NC1C2CC3CC(C2)CC1C3 (configuration not stated) | inactive: 18.5 µM
COC(=O)CN(C)P(=O)(N1CC1)N1CC1 | inactive: > 100 µM
COc1cc(/C=C2\N=C(c3ccccc3)N(c3nc4ccc(Sc5ccccc5)cc4[nH]3)C2=O)ccc1O | inactive: 30.1 µM
C[n+]1c2ccccc2c(CNCC(=O)O)c2ccccc21 | inactive: 11 µM
C=CC1=C(C)/C(=C/C2=NC(=C\c3[nH]c(CC4NC(=O)C(C)/C4=C\C)c(C)c3CCC(=O)O)/C(CC(=O)O)=C2C)NC1=O (configuration not stated) | inactive: > 100 µM
CC(=O)NC1=C[C@@H]([C@H]2COC(C)(C)O2)OC1=O | inactive: > 100 µM
Cc1ccc(S(=O)(=O)NNC(=O)c2cc(C)c(C)cc2N)cc1 | inactive: > 100 µM
Cc1nc(C(N)=S)sc1/C(CC(=O)C(=O)Nc1cccc2ccc(O)cc12)=N\NC(=O)c1ccncc1 | inactive: > 100 µM
COC(=O)N/N=c1\cc(C(=O)Nc2ccc(C)c(C)c2)oc2cc(O)ccc12 | inactive: > 100 µM
N/C(=N\O)N/N=C/c1cccs1 | inactive: 36.4 µM
O=C(O)c1cnccc1-c1cc(=O)[nH]n1-c1ccccc1 | inactive: > 96.2 µM
C1CCNCC1.S=C(S)N1CCCCC1 | inactive: 113 µM
CN(C)C(=S)SCc1ccccc1 | inactive: > 100 µM
CCC1c2[nH]c3ccccc3c2C[C@H]2C(=O)N3CCC[C@H]3C(=O)N12 (some centres not stated) | inactive: > 100 µM
C=C1CC(C)(COc2ccc3c(C)c(Cl)c(=O)oc3c2)OC1=O (configuration not stated) | inactive: 5.81 µM
CC(=O)N(CN1C(=O)CCC1C(=O)O)c1ccccc1 (configuration not stated) | inactive: > 56.1 µM
O=S(=O)(N/N=C1\CC2CCC1C2)c1ccccc1 (configuration not stated) | inactive: > 100 µM
O=C(N1CCN(c2ccccc2)CC1)N(C(=O)C1(c2ccc(Cl)cc2)CCCC1)S(=O)(=O)c1ccccc1 | inactive: 29.3 µM
N=C(N)NS(=O)(=O)c1ccc(NC(=O)c2cccc3c(NNc4ccc(S(N)(=O)=O)cc4)c4ccccc4nc23)cc1 | inactive: 81.3 µM

Structure (SMILES) | GI50
CC1(CO)COC(C)(C)OC1 | inactive: > 100 µM
COC(=O)C1=C(C(=O)NNc2ccccc2)N(c2cccnc2Cl)C(c2ccccc2)=CC1c1ccccc1 (configuration not stated) | inactive: 43.7 µM
Cc1ccc(NC(=O)C(=O)CC(=O)C2CCOC2=O)c(C)c1 (configuration not stated) | inactive: > 100 µM
Cc1c(-c2ccccc2)n[nH]c1NC1(C)C(=O)N(/N=C/c2ccccc2)N=C1c1ccccc1 (configuration not stated) | inactive: > 100 µM
Cc1ccc2[nH]c3c(c2c1)CCC/C3=N/N=C(N)N | inactive: 1.69 µM
O=C1CCSC2=C1SCc1sccc12 | inactive: > 100 µM
COc1ccc(NC(/C(C(=O)c2ccccc2)=C(\O)C(=O)/C=C(\O)c2ccccc2)c2ccc(OC)cc2)cc1 (configuration not stated) | inactive: 40.7 µM
CCC(=O)OC[n+]1ccc2c(C)c3[nH]c4ccc(OC)cc4c3c(C)c2c1 | active: 0.0931 µM
O=C(OCC1CO1)c1cccs1 (configuration not stated) | inactive: > 100 µM
COc1ccc(NC/C=C/C(=C/COC(C)=O)OC(C)=O)cc1 | inactive: 7.45 µM
COC(=O)/C=c1/c2ccccc2n2c1c1ccccc1[n+]2C | inactive: 4.8 µM
O=C(NC(=O)c1cn(CCN(CCO)C(=O)NCCCCCCNC(=O)N(CCO)CCn2cc(C(=O)NC(=O)OCc3ccccc3)c(=O)[nH]c2=O)c(=O)[nH]c1=O)OCc1ccccc1 | inactive: > 100 µM
O=P1(Oc2ccccc2)NCc2ncccc2O1 (configuration not stated) | inactive: > 100 µM
O=C(Nc1ccc(Cl)cc1C(F)(F)F)C(=O)Nn1c(S)nc2ccccc2c1=O | inactive: > 100 µM
CCCN1C(=O)/C(=C\c2ccc(OC)c(OC)c2)S/C1=N\c1ccccc1 | inactive: > 100 µM
CN(/N=C/c1cccc2cccnc12)c1ccc(Cl)cc1[N+](=O)[O-] | inactive: > 100 µM
COC1/C=C\C=C(/C)C(=O)Nc2cc3nc4ccc(Br)cc4oc-3c(c2=O)CC(C)CC(OC)C(O)C(C)/C=C(\C)C1OC(N)=O (configuration not stated) | inactive: 10.2 µM
N#CC(C#N)=C/C=C/c1ccccc1[N+](=O)[O-] | inactive: > 10 µM
C[N+](C)(C)CC(=O)N/N=C(/C=C/c1ccccc1)CC1OC(=O)c2ccccc21 (configuration not stated) | inactive: > 100 µM
CCC(=O)Nc1ccc(NC(C#N)c2cccc(Oc3ccccc3)c2)cc1 (configuration not stated) | inactive: 82.4 µM
Cc1nc2c(n1CCCl)C(=O)c1ccccc1C2=O | inactive: 35.9 µM
O=c1c(Sc2c(SCSc3cnc4ccccc4c3Sc3c[nH]c4ccccc4c3=O)cnc3ccccc23)c[nH]c2ccccc12 | inactive: > 100 µM

Structure (SMILES) | GI50
COC(COC(=O)N1CCN(C=O)CC1)C1=C(N2CC2)C(=O)C(C)=C(N2CC2)C1=O (configuration not stated) | inactive: 1.32 µM
CCCCc1c2c(nc3c1CCc1cc4cc5c(nc4nc1-3)-c1nc3c(c(CCCC)c1CC5)CCCC3)CCCC2 | inactive: 45.4 µM
CCOc1ccc(NC(=O)CC2SC(Nc3ccc(C)cc3)=NC2=O)cc1 (configuration not stated) | inactive: > 100 µM
CCOC(=O)Nc1cc2c(c(N)n1)N=C(c1ccc(OC)cc1)CN2 | active: 0.117 µM
CC(C)C(CC(=O)OCC(CO)OC(=O)CC(C(C)C)C(C)C)C(C)C (configuration not stated) | inactive: 14.7 µM
Cc1c(-c2ccccc2)nn2cc(-c3ccccc3)nnc12 | inactive: 17.7 µM
CCOP(=O)(OCC)/C(=C/c1ccccc1)CC(C)=O | inactive: > 100 µM
NCCCC[C@H](N)C(=O)Nc1ccc(-c2nc3ccccc3s2)cc1 | inactive: 22.8 µM
Cc1sc2[nH]c(=O)oc(=O)c2c1C | inactive: > 100 µM
CN1C(=O)C2CCCC(=O)N2c2cccnc21 (configuration not stated) | inactive: > 100 µM
C[n+]1cccc2c(=O)c3ccccc3oc21 | inactive: > 100 µM
O=[N+]([O-])c1cc(Cl)cc2cc(Br)cnc12 | inactive: > 31.6 µM
COc1ccc(C(=O)c2[nH]c(Nc3ccc(Cl)cc3)c(C(=S)Nc3ccccc3)c2N)cc1 | inactive: > 100 µM
Cc1n[nH]c(=O)n1/N=C\CC/C=N\n1c(C)n[nH]c1=O | inactive: > 100 µM
CCN(CC)CCC(=O)OC1C(C)=CC(C)C(=O)CC(C(C)CC2CCC(O)C(OC)C2)OC(=O)C2CCCCN2C(=O)C(=O)[C@@]2(O)OC(CCC2C)CC(OC)\C(C)=C/C=C/C=C/C(C)CC(C)C(=O)C1OC (some centres not stated) | inactive: 11.2 µM
CC1Cc2cc(O)ccc2C2[C@@H]1C1CC[C@H](O)[C@@]1(C)C[C@@H]2O[N+](=O)[O-] (some centres not stated) | inactive: 19.9 µM
CC1(C)O[C@H]2OC3CCC(=O)CC3(O)[C@H]2O1 (some centres not stated) | inactive: > 100 µM
COc1cc(C2c3cc4c(cc3[C@@H](OCCN(C)C)C3COC(=O)[C@H]23)OCO4)cc(OC)c1O (some centres not stated) | inactive: 1.89 µM
c1ccc2c(c1)cc1ccc3cccc4ccc2c1c34 | inactive: 14.1 µM
CC(=O)O[C@H]1C[C@H](O[C@H]2[C@@H](O)C[C@H](O[C@H]3[C@@H](O)C[C@H](O[C@H]4CC[C@@]5(C)[C@H](CC[C@@H]6[C@@H]5CC[C@]5(C)[C@@H](C7=CC(=O)OC7)CC[C@]65O)C4)O[C@@H]3C)O[C@@H]2C)O[C@H](C)[C@H]1O[C@@H]1O[C@H](CO)[C@@H](O)[C@H](O)[C@H]1O | active: 0.016 µM
CC1(C)N=C(N)N=C(N)N1c1cccc(Cl)c1 | inactive: 20.9 µM
